Source: the BET-seq Pho4 binding data (Le et al. 2018)
The other results are listed elsewhere or left out. The energies were worked out here from pooled read counts, against the library average; single values are noisy.

The sequences below were run against T1, Pho4 (S. cerevisiae) (UniProt P07270) (assay: relative binding free energy (BET-seq); higher = weaker binding). Conditions: reference: library average.
T1 sequence: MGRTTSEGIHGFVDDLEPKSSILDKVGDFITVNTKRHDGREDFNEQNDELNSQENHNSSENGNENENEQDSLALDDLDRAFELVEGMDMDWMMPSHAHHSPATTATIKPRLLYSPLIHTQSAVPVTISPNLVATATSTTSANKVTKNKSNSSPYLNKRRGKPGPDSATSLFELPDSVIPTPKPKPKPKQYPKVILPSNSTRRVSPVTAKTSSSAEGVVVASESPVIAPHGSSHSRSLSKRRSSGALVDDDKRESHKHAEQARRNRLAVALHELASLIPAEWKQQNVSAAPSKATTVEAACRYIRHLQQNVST

Sequence | relative binding free energy
CGGGGCACGTGGGGTT | -0.15 kcal/mol
CGTATCACGTGGGAGG | 0.03 kcal/mol
AGCTGCACGTGTGTGA | 0.1 kcal/mol
GCGGTCACGTGACGGG | 0.26 kcal/mol
ACGAGCACGTGGTGTG | -0.22 kcal/mol
TAGTCCACGTGTGAGG | 0.13 kcal/mol
AGTATCACGTGTTCGG | 0.21 kcal/mol
GAGGGCACGTGGGTAT | -0.1 kcal/mol
TTTGACACGTGAAGGC | 0.3 kcal/mol
ATTGGCACGTGGGCCG | -0.2 kcal/mol
GCTTGCACGTGCGTGA | 0.06 kcal/mol
CTGATCACGTGGGCTG | 0.01 kcal/mol
TGTGTCACGTGACCGG | 0.27 kcal/mol
TATGGCACGTGCGTAT | -0.08 kcal/mol
TGGATCACGTGCAAGG | 0.07 kcal/mol
GGTAGCACGTGGTCCG | -0.15 kcal/mol
TAGAGCACGTGTCGTG | -0.11 kcal/mol
TGGGACACGTGATATG | 0.1 kcal/mol
GTGTACACGTGGTGCA | -0.1 kcal/mol
TAGGTCACGTGATGCT | 0.17 kcal/mol
TGGTGCACGTGAATGG | 0.16 kcal/mol
GGGATCACGTGAGGGA | 0.29 kcal/mol
TGGAGCACGTGCTTGT | -0.1 kcal/mol

Sequence | relative binding free energy
GTGATCACGTGGTTCT | 0.22 kcal/mol
AAGGTCACGTGTGTTA | 0.11 kcal/mol
TGTTGCACGTGTGTCT | 0 kcal/mol
ATGTACACGTGCCAGG | 0.11 kcal/mol
TAAATCACGTGTTTCT | 0.12 kcal/mol
GGAGGCACGTGTCGTA | 0.01 kcal/mol
GGGTGCACGTGTTCAT | 0.03 kcal/mol
GATGTCACGTGTGTTC | 0.04 kcal/mol
TGAGGCACGTGGGGTC | -0.06 kcal/mol
TATAACACGTGTTTTA | 0.06 kcal/mol
TGTCGCACGTGGGATT | -0.13 kcal/mol
TGGGGCACGTGTACTT | -0.1 kcal/mol
AACTGCACGTGAGGTG | 0.12 kcal/mol
GGTCGCACGTGATGTA | 0.03 kcal/mol
CGGGTCACGTGAGCGT | 0.08 kcal/mol
TTTGACACGTGCTAGG | -0.06 kcal/mol
AATAACACGTGGAGGT | -0.02 kcal/mol
ATAATCACGTGCGTGT | 0.03 kcal/mol
GCAATCACGTGGGGCT | 0.19 kcal/mol
GTGTGCACGTGCATGT | 0.01 kcal/mol
TATGTCACGTGCTGAA | 0.01 kcal/mol
AGGGACACGTGGACGT | 0.07 kcal/mol
AAATTCACGTGTGTGT | 0.44 kcal/mol

Sequence | relative binding free energy
GTAGTCACGTGCAGAG | 0.04 kcal/mol
AGATTCACGTGTTGGA | 0.2 kcal/mol
GGGTACACGTGAAGGT | 0.49 kcal/mol
ATTAGCACGTGACTGT | 0.19 kcal/mol
GTGTCCACGTGGTAAG | 0.11 kcal/mol
AGTCACACGTGTTTGG | 0 kcal/mol
CGATTCACGTGTTTGA | 0.38 kcal/mol
TGGTTCACGTGCACAT | 0.33 kcal/mol
AGGGACACGTGGGGTG | -0.09 kcal/mol
AACTTCACGTGGGTGT | 0.18 kcal/mol
TTAGGCACGTGGCCGT | -0.17 kcal/mol
TTTATCACGTGTGGTT | 0.13 kcal/mol
TGGCGCACGTGGCGGA | -0.18 kcal/mol
ATTTGCACGTGGGGCC | -0.13 kcal/mol
TGCAACACGTGGGTAG | -0.06 kcal/mol
AGTCGCACGTGGTTAG | -0.14 kcal/mol
GCTTACACGTGTGATG | 0.18 kcal/mol
ATCGTCACGTGTATAG | 0.3 kcal/mol
CATGGCACGTGGTGAA | -0.13 kcal/mol
TATGTCACGTGGTGGA | -0.04 kcal/mol
GGGGGCACGTGAACAG | 0.18 kcal/mol
CATGGCACGTGAGGTT | 0.12 kcal/mol
GAAAGCACGTGTTAGG | -0.01 kcal/mol

Sequence | relative binding free energy
GATAGCACGTGTTTCG | 0.04 kcal/mol
AGGCGCACGTGGCGTT | -0.2 kcal/mol
TATCGCACGTGGTTGA | -0.02 kcal/mol
ATGAGCACGTGGCATA | -0.03 kcal/mol
CGTGCCACGTGTGTGT | -0.09 kcal/mol
ATTGTCACGTGGTAGC | 0.06 kcal/mol
CTGGTCACGTGAGGCT | 0.31 kcal/mol
CAGTGCACGTGGTGGG | -0.14 kcal/mol
GGTCTCACGTGAGAGG | 0.46 kcal/mol
TGTGGCACGTGAGGAA | 0.14 kcal/mol
TATCGCACGTGGTCTG | -0.15 kcal/mol
TTTGACACGTGAGAGA | 0.15 kcal/mol
AGTGTCACGTGGAGGG | -0.01 kcal/mol
GGGGGCACGTGTTTTG | 0.05 kcal/mol
TTCAGCACGTGGAGGG | -0.09 kcal/mol
GCTGTCACGTGTATTG | 0.03 kcal/mol
CTCTTCACGTGAGGGT | 0.2 kcal/mol
TGGGTCACGTGAGGAC | 0.28 kcal/mol
GGGGCCACGTGGGGAC | -0.26 kcal/mol
GTGGTCACGTGAAGTT | 0.36 kcal/mol
TGTCTCACGTGGAGTG | 0.02 kcal/mol
GTGTTCACGTGAGGTC | 0.26 kcal/mol
AACTTCACGTGTGTGG | 0.32 kcal/mol

Sequence | relative binding free energy
GTATTCACGTGGCAGA | 0.35 kcal/mol
TAGGTCACGTGCTAGG | -0.05 kcal/mol
GTTGTCACGTGTGCGC | 0.15 kcal/mol
ACATTCACGTGTAGTG | 0.2 kcal/mol
TTGTCCACGTGTGAAG | 0.18 kcal/mol
TCAGGCACGTGGATGT | -0.01 kcal/mol
GTCGACACGTGGTGAG | 0.11 kcal/mol
AGCATCACGTGGGGTA | -0.03 kcal/mol
TCAAGCACGTGTATGT | -0.11 kcal/mol
TATAGCACGTGTGCTG | -0.17 kcal/mol
TGGCCCACGTGCGAGG | 0.02 kcal/mol
GAGTTCACGTGAGAGA | 0.57 kcal/mol
TGCTGCACGTGGATGG | 0.03 kcal/mol
CGTTCCACGTGGGGTA | -0.07 kcal/mol
TTGCTCACGTGTTTTT | 0.14 kcal/mol
CGTTGCACGTGGGTTA | -0.24 kcal/mol
CTGTGCACGTGTGTGA | -0.06 kcal/mol
GTGGACACGTGTCGGT | 0.08 kcal/mol
TGTGTCACGTGAATAT | 0.26 kcal/mol
GGGGCCACGTGTTTGA | -0.01 kcal/mol
GTGTACACGTGTGTCA | 0.16 kcal/mol
TGACGCACGTGATTTT | 0.15 kcal/mol
ATGTTCACGTGGCCGT | 0 kcal/mol
